The subject of one assay is HSkMC. The experiment in a line: cytotoxicity call (relative viability < 0.9). As to conditions: 10 µM.
The subject of another assay is HepG2. The experiment in a line: cytotoxicity call (relative viability < 0.9). The note with it: 10 µM.
The next assay has as its system S. aureus RN4220. The experiment in a line: growth inhibition call (relative growth <= 0.2). As to conditions: 50 µM.

Some of the results follow.

On to `C[C@H](CO)N1C[C@H](C)[C@@H](CN(C)C(=O)Nc2ccc(F)cc2)OCCCC[C@H](C)Oc2ccc(NC(=O)Cc3ccccc3)cc2C1=O`, for which the cytotoxicity call with HSkMC and with HepG2 was “inactive” throughout. Moreover, in the assay on S. aureus RN4220, the growth inhibition call is “inactive”.
For `Cc1noc(C)c1NC(=O)N[C@@H]1CC[C@@H](CC(=O)N2CCN(C)CC2)O[C@@H]1CO`, the cytotoxicity call in the assay with HSkMC and in the assay with HepG2 was “inactive” throughout. For the same molecule, the growth inhibition call in the assay with S. aureus RN4220 was “inactive”.
As to `CCC(=O)c1c(O)cc(O)cc1O`, the cytotoxicity call with HSkMC and with HepG2 was “inactive” in each case. Besides, in the assay with S. aureus RN4220, the growth inhibition call is “inactive”.
For `O=C(CCNc1n[nH]c(=O)[nH]c1=O)NCc1ccco1`, the cytotoxicity call with HSkMC and in the assay on HepG2 was “inactive” in each case. For the same molecule, in the assay with S. aureus RN4220, the growth inhibition call was “inactive”.
As for `C[C@H](CO)N1C[C@H](C)[C@H](CN(C)C(=O)Nc2ccc3c(c2)OCO3)Oc2ccc(NC(=O)CCCN(C)C)cc2C1=O`, the cytotoxicity call in the assay with HSkMC and in the assay on HepG2 was “inactive” throughout. Moreover, the growth inhibition call in the assay on S. aureus RN4220 is “inactive”.
In the case of `O=C(C[C@H]1CC[C@H]2[C@@H](COC[C@H](O)CN2C(=O)Nc2cccc(Cl)c2)O1)NCCCN1CCOCC1`, the cytotoxicity call with HSkMC and with HepG2 was “inactive” in each case. Moreover, the growth inhibition call with S. aureus RN4220 is “inactive”.
With `CC(C)(C)c1ccc(C(O)CCCN2CCC(C(O)(c3ccccc3)c3ccccc3)CC2)cc1` (configuration not stated), the cytotoxicity call in the assay on HSkMC and in the assay with HepG2 was “active” throughout. Also, the growth inhibition call in the assay on S. aureus RN4220 is “inactive”.
On to `C[C@@H]1CN([C@@H](C)CO)C(=O)Cc2cc(NC(=O)c3ccncc3)ccc2O[C@H]1CN(C)Cc1ccc(C(=O)O)cc1`, for which the cytotoxicity call with HSkMC and with HepG2 was “inactive” each time. The growth inhibition call in the assay with S. aureus RN4220 is “inactive”.
For `COc1ccc(NC(=O)N(C)C[C@@H]2OCCCC[C@@H](C)Oc3ccc(NC(=O)Nc4ccc(C(F)(F)F)cc4)cc3C(=O)N([C@@H](C)CO)C[C@H]2C)cc1`, the cytotoxicity call in the assay with HSkMC and in the assay with HepG2 was “inactive” in each case. Also, the growth inhibition call in the assay with S. aureus RN4220 is “inactive”.
Take `C[C@H]1CN([C@@H](C)CO)C(=O)c2cc(NS(=O)(=O)c3ccccc3)ccc2O[C@H]1CN(C)S(=O)(=O)c1cccs1`: the cytotoxicity call in the assay on HSkMC and with HepG2 was “inactive” each time. For the same molecule, the growth inhibition call with S. aureus RN4220 is “inactive”.
Turning to `NC(=O)NC(=O)C[n+]1ccc(/C=N/O)cc1`, the cytotoxicity call with HSkMC and in the assay on HepG2 was “inactive” each time. For the same molecule, in the assay on S. aureus RN4220, the growth inhibition call was “inactive”.
For the molecule `CNC(=O)C[C@@H]1CC[C@H]2[C@@H](COC[C@H](O)CN2C(=O)c2ccccn2)O1`, the cytotoxicity call with HSkMC and with HepG2 was “inactive” in each case. In addition, the growth inhibition call in the assay on S. aureus RN4220 was “inactive”.
In the case of `CC(C)NC(=O)Nc1ccc2c(c1)C(=O)N([C@@H](C)CO)C[C@H](C)[C@H](CN(C)S(=O)(=O)c1ccccc1)O2`, the cytotoxicity call in the assay with HSkMC and in the assay with HepG2 was “inactive” in each case. In the assay on S. aureus RN4220, the growth inhibition call was “inactive”.
As for `C[C@@H]1[C@@H]([Si](C)(C)F)[C@H](CC(=O)N(CCO)Cc2ccccc2)O[C@@]12C(=O)N(c1ccccc1)c1ccccc12`, in the assay with HSkMC, the cytotoxicity call is “inactive”. The cytotoxicity call in the assay on HepG2 was “active”. Besides, the growth inhibition call in the assay with S. aureus RN4220 was “inactive”.
With `COc1ccc(S(=O)(=O)Nc2ccc3c(c2)C(=O)N([C@@H](C)CO)C[C@H](C)[C@H](CN(C)S(=O)(=O)c2ccc(C)cc2)O3)cc1`, the cytotoxicity call in the assay on HSkMC and with HepG2 was “inactive” in each case. Moreover, the growth inhibition call with S. aureus RN4220 is “inactive”.
On to `C[C@@H]1CN([C@H](C)CO)C(=O)c2cc(NS(=O)(=O)c3ccccc3)ccc2O[C@@H](C)CCCCO[C@@H]1CN(C)C(=O)NC1CCCCC1`, for which the cytotoxicity call in the assay on HSkMC and with HepG2 was “inactive” in each case. Moreover, in the assay on S. aureus RN4220, the growth inhibition call is “inactive”.
Consider `C[C@H](CO)N1C[C@H](C)[C@@H](CN(C)Cc2ccc(Cl)c(Cl)c2)OCCCC[C@H](C)Oc2ccc(NS(=O)(=O)c3ccc(F)cc3)cc2C1=O`, for which the cytotoxicity call in the assay with HSkMC and in the assay on HepG2 was “inactive” in each case. Moreover, the growth inhibition call in the assay on S. aureus RN4220 was “inactive”.
In the case of `Cc1ccc(S(=O)(=O)Nc2ccc3c(c2)C(=O)N([C@@H](C)CO)C[C@@H](C)[C@@H](CN(C)Cc2ccc4c(c2)OCO4)OCCCC[C@H](C)O3)cc1`, the cytotoxicity call in the assay with HSkMC and in the assay on HepG2 was “inactive” each time. In addition, the growth inhibition call in the assay on S. aureus RN4220 was “inactive”.
As for `CC(=O)N1[C@@H]2c3ccc(-c4ccccc4)c(=O)n3C[C@H]1[C@H](CO)[C@H]2C(=O)N1CCN(C)CC1`, the cytotoxicity call with HSkMC and in the assay with HepG2 was “inactive” throughout. For the same molecule, the growth inhibition call with S. aureus RN4220 was “inactive”.
Consider `C[C@H](CO)N1C[C@H](C)[C@H](CN(C)C(=O)CN(C)C)Oc2cc(C#C[C@@H](C)O)ccc2S1(=O)=O`, for which the cytotoxicity call in the assay with HSkMC and in the assay with HepG2 was “inactive” throughout. In addition, the growth inhibition call with S. aureus RN4220 is “inactive”.
For the molecule `C[C@@H]1CCCCO[C@H](CN(C)CC2CCCCC2)[C@H](C)CN([C@@H](C)CO)C(=O)c2cc(NS(=O)(=O)c3ccccc3)ccc2O1`, the cytotoxicity call with HSkMC and in the assay with HepG2 was “inactive” throughout. The growth inhibition call in the assay on S. aureus RN4220 is “inactive”.
Consider `Cc1noc(C)c1NC(=O)N(C)C[C@@H]1Oc2c(NC(=O)C3CC3)cccc2C(=O)N([C@H](C)CO)C[C@H]1C`, for which the cytotoxicity call in the assay with HSkMC and with HepG2 was “inactive” throughout. Moreover, the growth inhibition call in the assay on S. aureus RN4220 was “inactive”.
Consider `CNC(=O)CN1C(=O)[C@@H]2[C@@H](C1=O)[C@@H]1C=C[C@@H]2C1`, for which the cytotoxicity call in the assay on HSkMC and in the assay on HepG2 was “inactive” throughout. Moreover, the growth inhibition call in the assay with S. aureus RN4220 is “inactive”.
For `C[C@@H]1CCCCO[C@@H](CN(C)C(=O)Nc2ccccc2)[C@@H](C)CN([C@H](C)CO)C(=O)c2cc(NS(=O)(=O)c3ccc(Cl)cc3)ccc2O1`, the cytotoxicity call in the assay on HSkMC and in the assay with HepG2 was “inactive” in each case. For the same molecule, the growth inhibition call in the assay on S. aureus RN4220 was “inactive”.
Regarding `NC(C(=O)O)C(O)c1ccc(O)c(O)c1` (configuration not stated), in the assay with HSkMC, the cytotoxicity call is “inactive”. Besides, the cytotoxicity call in the assay with HepG2 is “active”. For the same molecule, in the assay on S. aureus RN4220, the growth inhibition call is “inactive”.
Consider `NCC[C@@H]1CC[C@H](NC(=O)c2ccccc2F)[C@@H](CO)O1`, for which the cytotoxicity call in the assay with HSkMC and in the assay with HepG2 was “inactive” throughout. Also, the growth inhibition call in the assay on S. aureus RN4220 was “inactive”.
As for `C[C@H](CO)N1C[C@H](C)[C@H](CN(C)Cc2ccc(C(=O)O)cc2)Oc2c(NC(=O)c3cnccn3)cccc2C1=O`, the cytotoxicity call in the assay on HSkMC and in the assay with HepG2 was “inactive” throughout. Moreover, the growth inhibition call with S. aureus RN4220 was “inactive”.
Turning to `C[C@H]1CN([C@@H](C)CO)C(=O)c2cc(NC(=O)Cn3cnnn3)ccc2O[C@H]1CN(C)Cc1ccc(Cl)c(Cl)c1`, the cytotoxicity call with HSkMC and with HepG2 was “inactive” each time. For the same molecule, the growth inhibition call in the assay with S. aureus RN4220 is “inactive”.
Take `Cn1cnc(S(=O)(=O)N[C@@H]2CC[C@@H](CC(=O)Nc3ccccc3)O[C@@H]2CO)c1`: the cytotoxicity call in the assay on HSkMC and with HepG2 was “inactive” throughout. The growth inhibition call with S. aureus RN4220 was “inactive”.
`C[C@@H]1CN([C@H](C)CO)C(=O)Cc2cc(NC(=O)Cn3cnnn3)ccc2O[C@H]1CN(C)Cc1ccc(Oc2ccccc2)cc1`: the cytotoxicity call with HSkMC and with HepG2 was “inactive” throughout. In the assay on S. aureus RN4220, the growth inhibition call is “inactive”.
As to `Cc1ccc(S(=O)(=O)N(C)C[C@@H]2Oc3ccc(NC(=O)CCN4CCOCC4)cc3C(=O)N([C@H](C)CO)C[C@H]2C)cc1`, the cytotoxicity call in the assay on HSkMC and in the assay on HepG2 was “inactive” in each case. For the same molecule, in the assay with S. aureus RN4220, the growth inhibition call was “inactive”.
Take `CCCNC(=O)N1C[C@]2(CCN(CC2)S(=O)(=O)c2ccccc2)c2c(n(c3cc(ccc23)OC)C)[C@@H]1CO`: the cytotoxicity call in the assay on HSkMC and in the assay with HepG2 was “inactive” each time. Besides, the growth inhibition call in the assay with S. aureus RN4220 is “inactive”.
Consider `Cc1ccc(S(=O)(=O)Nc2ccc3c(c2)CC(=O)N([C@H](C)CO)C[C@H](C)[C@@H](CN(C)S(=O)(=O)c2cccs2)O3)cc1`, for which the cytotoxicity call in the assay with HSkMC and with HepG2 was “inactive” in each case. In addition, in the assay with S. aureus RN4220, the growth inhibition call is “inactive”.
Turning to `O=C(N[C@H]1CC[C@@H](CCNS(=O)(=O)c2ccccc2)O[C@H]1CO)c1cnccn1`, the cytotoxicity call in the assay on HSkMC and in the assay on HepG2 was “inactive” each time. The growth inhibition call with S. aureus RN4220 is “inactive”.
With `C[C@H](CO)N1C[C@H](C)[C@@H](CN(C)S(=O)(=O)c2ccc(F)cc2)OCCCC[C@H](C)Oc2ccc(NC(=O)CCC(F)(F)F)cc2C1=O`, the cytotoxicity call with HSkMC and with HepG2 was “inactive” each time. Besides, the growth inhibition call in the assay on S. aureus RN4220 is “inactive”.
`Cc1cc(NC(=O)C2=C(O)c3ccccc3S(=O)(=O)N2C)no1`: the cytotoxicity call with HSkMC and with HepG2 was “inactive” throughout. Besides, the growth inhibition call in the assay with S. aureus RN4220 was “inactive”.
On to `C=CCN1C(=O)[C@@]2(O[C@@H](CCn3cc([C@H](O)c4ccccc4)nn3)[C@H]([Si](C)(C)c3ccc(OC)cc3)[C@H]2C)c2ccccc21`, for which the cytotoxicity call in the assay on HSkMC (human skeletal muscle cells) and with HepG2 was “inactive” throughout. Moreover, in the assay with S. aureus RN4220, the growth inhibition call was “inactive”.
For `COc1cccc(S(=O)(=O)Nc2ccc3c(c2)[C@H]2C[C@H](CC(=O)NCCc4ccccc4)O[C@H](CO)[C@H]2O3)c1`, the cytotoxicity call in the assay with HSkMC and with HepG2 was “inactive” throughout. The growth inhibition call in the assay with S. aureus RN4220 was “inactive”.
Regarding `Cc1noc(C)c1NC(=O)Nc1cccc2c1O[C@@H](CN(C)C(=O)Nc1ccc(C(F)(F)F)cc1)[C@@H](C)CN([C@H](C)CO)C2=O`, the cytotoxicity call in the assay with HSkMC and with HepG2 was “inactive” in each case. The growth inhibition call in the assay on S. aureus RN4220 was “inactive”.

These data come from the antibiotic and cytotoxicity screens of Wong et al. (2023).
